In article PMC8245553, “Identification of natural product modulators of Merkel cell carcinoma cell growth and survival” (Scientific Reports, 2021):

Tested on: UISO (VN-MCC) cells

C/C=C(/C)C(=O)O[C@H]1C(C)=C2[C@H]([C@@H]1OC(=O)CCCCCCC)[C@@](C)(OC(C)=O)C[C@H](OC(=O)CCC)[C@@]1(O)[C@H]2OC(=O)[C@@]1(C)O [Thapsigargin]
IC50: 900 nM

O=C(N[C@H](COC(=O)[C@H](Cc1ccccc1)NC(=O)c1ccccc1)Cc1ccccc1)c1ccccc1 [asperphenamate]
IC50: 5190 nM

COc1c(C)c2c(c(O)c1C/C=C(\C)CCC(=O)O)C(=O)OC2 [mycophenolic acid]
IC50: ~5000 nM

CCN(CC)C(=S)SSC(=S)N(CC)CC [Disulfiram]
IC50: 40 nM

C[n+]1ccc2c(c1)c(O)c1c3c(c4cc(Br)ccc4nc32)C(=O)C[N+]1(C)C [petrosamine B]
IC50: 3140 nM

Cc1[nH]c2ccccc2c1CCNCc1ccc(/C=C/C(=O)NO)cc1 [Panobinostat]
IC50: 28 nM

S=C(S)N1CCCC1 [Pyrrolidinedithiocarbamate]
IC50: 210 nM

CC1=CC(=O)c2c(O)cccc2C1=O [Plumbagin]
IC50: ~6000 nM

CCOC(C)C(C=NNC(N)=S)=NNC(N)=S (stereo not drawn) [Gloxazone, 3-ethoxy-2-oxobutyraldehyde bis(thiosemicarbazone)]
IC50: < 20 nM
